Results taken from the supplement of paper PMC7826260.
The other results are listed elsewhere or left out. Viral Rep nickase domains cut single-stranded DNA in vitro for 1 h at 37 °C with 3 µM enzyme; only the middle of the 90-letter strands is printed. Numbers give uncut DNA relative to the enzyme-free pool, as log2; strong cutting gives strongly negative numbers. There is no active / inactive call. Reads are scaled to the total; uncut strands gain when others are lost, and binding without cutting may add a little.

Assays:
Experiment in all cases: uncleaved DNA left, log2 of reads against the no-enzyme library (log2 ratio); higher = less cleavage (more negative = more Rep cleavage of the k-mer); sequences stand for … in CTCGTCCG…ACCGGAGA
[1] = system: T1, Rep nickase domain of Muscovy duck circovirus
T1 sequence (residues 1-111 of Rep, tag left off): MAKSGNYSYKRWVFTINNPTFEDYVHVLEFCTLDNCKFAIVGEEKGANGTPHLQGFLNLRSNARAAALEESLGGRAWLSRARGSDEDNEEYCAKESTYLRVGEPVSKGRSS
Description: (§1)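 A pool of 90-nt single-stranded DNAs with seven random bases just before the constant AC of the nick site (name = the seven bases) was cut by 3 µM recombinant His6-SUMO-tagged Rep nickase domain (300 nM DNA, 50 mM HEPES pH 8.0, 50 mM NaCl, 1 mM MnCl2, 1 h, 37 °C, three replicates). Uncut DNA was amplified and sequenced.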

[2] = system: T2, Rep nickase domain of banana bunchy top virus
T2 sequence (residues 1-94 of Rep, tag left off): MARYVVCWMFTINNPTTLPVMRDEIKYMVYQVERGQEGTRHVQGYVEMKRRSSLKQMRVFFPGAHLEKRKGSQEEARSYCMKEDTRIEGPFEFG
Description: as §1

[3] = system: T3, Rep nickase domain of cabbage leaf curl virus
T3 sequence (residues 1-116 of Rep, tag left off): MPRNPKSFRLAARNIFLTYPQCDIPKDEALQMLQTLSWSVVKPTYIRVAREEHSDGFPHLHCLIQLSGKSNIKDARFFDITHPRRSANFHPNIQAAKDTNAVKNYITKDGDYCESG
Description: as §1

[4] = system: T4, Rep nickase domain of chickpea chlorotic dwarf virus
T4 sequence (residues 1-124 of Rep, tag left off): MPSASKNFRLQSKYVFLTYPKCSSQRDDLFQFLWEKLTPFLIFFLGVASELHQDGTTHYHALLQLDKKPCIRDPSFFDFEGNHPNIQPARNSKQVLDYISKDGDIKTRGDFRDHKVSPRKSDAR
Description: as §1

[5] = system: T5, Rep nickase domain of faba bean necrotic yellows virus
T5 sequence (residues 1-98 of Rep, tag left off): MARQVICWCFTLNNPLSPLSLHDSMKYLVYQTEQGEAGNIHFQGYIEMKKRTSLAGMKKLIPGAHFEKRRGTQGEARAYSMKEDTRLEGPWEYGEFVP
Description: as §1

[6] = system: T6, Rep nickase domain of maize striate mosaic virus
T6 sequence (residues 1-117 of Rep, tag left off): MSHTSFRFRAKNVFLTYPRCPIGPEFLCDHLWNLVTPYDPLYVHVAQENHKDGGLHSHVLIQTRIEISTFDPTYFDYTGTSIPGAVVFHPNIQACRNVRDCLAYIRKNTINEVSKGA
Description: as §1

[7] = system: T7, Rep nickase domain of porcine circovirus 2
T7 sequence (residues 2-116 of Rep, tag left off): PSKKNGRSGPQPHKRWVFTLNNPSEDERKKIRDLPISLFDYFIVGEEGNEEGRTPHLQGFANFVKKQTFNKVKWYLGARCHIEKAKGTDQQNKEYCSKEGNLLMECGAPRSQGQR
Description: as §1

[8] = system: T8, Rep nickase domain of tomato golden mosaic virus
T8 sequence (residues 1-124 of Rep, tag left off): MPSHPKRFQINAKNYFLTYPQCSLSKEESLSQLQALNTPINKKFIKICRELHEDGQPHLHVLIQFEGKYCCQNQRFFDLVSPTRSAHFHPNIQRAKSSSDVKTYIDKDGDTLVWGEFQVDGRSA
Description: as §1

[9] = system: T9, Rep nickase domain of tomato yellow leaf curl virus
T9 sequence (residues 1-136 of Rep, tag left off): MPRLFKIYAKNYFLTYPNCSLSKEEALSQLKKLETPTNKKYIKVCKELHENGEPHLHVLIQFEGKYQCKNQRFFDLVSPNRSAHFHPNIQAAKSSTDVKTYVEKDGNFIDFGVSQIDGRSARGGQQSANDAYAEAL
Description: as §1

[10] = system: T10, Rep nickase domain of wheat dwarf virus
T10 sequence (residues 1-137 of Rep, tag left off): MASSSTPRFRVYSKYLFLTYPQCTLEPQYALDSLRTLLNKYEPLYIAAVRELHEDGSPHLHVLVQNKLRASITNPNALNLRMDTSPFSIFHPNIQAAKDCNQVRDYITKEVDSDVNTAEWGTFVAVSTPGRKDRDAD
Description: as §1

Row | Sequence | uncleaved DNA left (log2) [1] | uncleaved DNA left (log2) [2] | uncleaved DNA left (log2) [3] | uncleaved DNA left (log2) [4] | uncleaved DNA left (log2) [5] | uncleaved DNA left (log2) [6] | uncleaved DNA left (log2) [7] | uncleaved DNA left (log2) [8] | uncleaved DNA left (log2) [9] | uncleaved DNA left (log2) [10]
1 | AAAAAAG | 0.121 | 0.0403 | -0.651 | -0.441 | 0.243 | -1.2 | 0.323 | 0.157 | 0.133 | 0.0992
2 | CCGGCTT | -0.14 | -0.221 | -0.0319 | -0.508 | -0.198 | 0.644 | -0.197 | -0.13 | -0.294 | -0.217
3 | GTGCTGG | 0.031 | -0.0216 | 0.0995 | 0.43 | 0.0394 | 0.0846 | 0.0435 | 0.0943 | -0.0828 | -0.0384
4 | GAGATAT | 0.127 | 0.148 | 0.857 | 2.03 | 0.121 | 2.22 | -0.856 | 0.143 | 0.1 | 0.221
5 | GAAACCA | -0.0338 | 0.0755 | 0.148 | -0.671 | -0.0426 | 0.72 | -0.12 | 0.042 | 0.00883 | 0.132
6 | CCTGGTA | -0.0326 | 0.156 | 0.0269 | -0.3 | 0.0454 | -0.199 | 0.0902 | -0.0156 | 0.118 | 0.0854
7 | TAAGTTT | -0.144 | -0.192 | -4.3 | -2.75 | -0.112 | -2.79 | -1.32 | -3.44 | -0.0558 | -3.8
8 | CTCCGAG | 0.0748 | 0.116 | 0.82 | 1.72 | 0.0946 | 1.42 | 0.164 | 0.076 | 0.0514 | 0.264
9 | ATGGCTC | -0.0198 | -0.0676 | -0.0618 | -0.595 | 0.0493 | -0.242 | -0.138 | -0.0838 | -0.135 | -0.277
10 | AAAGACT | 0.19 | 0.0131 | 0.0295 | -0.501 | 0.0672 | 1.4 | 0.123 | 0.13 | -0.0402 | 0.142
11 | CAGTAAG | -0.048 | -0.0563 | -0.842 | -0.15 | 0.0874 | -1.05 | 0.0753 | 0.0342 | 0.0741 | -0.105
12 | CTTGTGC | 0.12 | -0.161 | -0.738 | -0.614 | 0.0925 | -1.03 | 0.108 | -0.105 | 0.0844 | -0.0329
13 | TAACCTC | -0.122 | 0.056 | -1.5 | -2.74 | -0.0263 | 0.15 | -0.41 | -0.0893 | -0.0194 | -0.453
14 | TCCCTCC | 0.0329 | 0.0556 | 0.259 | 0.069 | 0.0394 | 0.548 | 0.122 | 0.0498 | -0.0364 | -0.0783
15 | TGTAAGA | -0.0138 | -0.0305 | 0.0781 | 0.00365 | 0.0591 | -0.728 | 0.0581 | -0.0253 | 0.0375 | -0.0405
16 | GTCTGAC | -0.013 | -0.0446 | 0.225 | 0.847 | -0.00274 | 1.18 | 0.0396 | 0.0245 | 0.0048 | 0.0636
17 | CCGCATG | 0.13 | -0.115 | -0.432 | -0.467 | -0.138 | -0.685 | 0.0863 | 0.13 | -0.114 | -0.161
18 | GGGAAAG | 0.0615 | 0.0927 | 0.858 | 2.08 | -0.0955 | 2.15 | 0.144 | 0.11 | 0.00945 | 0.228
19 | TGACTTC | -0.052 | 0.0269 | 0.309 | 0.459 | 0.0365 | 1.02 | 0.112 | -0.0778 | 0.00967 | 0.0192
20 | TTACGGA | 0.0738 | -0.0607 | 0.139 | 0.144 | 0.0545 | -0.00918 | 0.0653 | 0.105 | 0.0244 | 0.0471
21 | GATCAAG | 0.0554 | 0.0509 | -0.649 | -0.479 | 0.0478 | -1.03 | 0.0725 | -0.008 | 0.0146 | -0.0181
22 | ATTAAGT | 0.033 | 0.00219 | -0.0537 | -0.558 | -0.019 | -1.08 | -1.18 | -0.0319 | 0.0214 | -0.0419
23 | CAAGCGG | 0.0212 | 0.0582 | 0.362 | 1.34 | -0.0244 | 1.42 | 0.0845 | 0.0871 | -0.154 | 0.0387
24 | ACAAACC | -0.0843 | -0.0198 | -0.236 | -0.755 | -0.152 | -0.794 | -0.263 | 0.00825 | -0.0273 | 0.0531
25 | GCCAGCA | -0.00661 | 0.0997 | -0.197 | -0.198 | -0.0106 | -0.767 | -0.132 | 0.00569 | -0.11 | 0.0269
26 | TAGTGAA | -0.0383 | -0.0438 | 0.116 | -0.00826 | 0.00144 | 0.517 | -2.57 | 0.0656 | 0.0461 | -0.0456
27 | TTAGAAT | 0.0576 | 0.153 | 0.368 | -0.124 | 0.0509 | 0.525 | 0.0372 | 0.1 | 0.0501 | 0.0479
28 | TCGGATA | 0.00205 | 0.018 | 0.243 | 0.732 | -0.021 | 1.36 | 0.00816 | 0.0527 | -0.00194 | 0.0789
29 | GCTAGGG | -0.0211 | 0.0744 | -0.134 | 0.08 | 0.00888 | -0.538 | 0.153 | 0.0256 | 0.000702 | -0.0553
30 | GTAACTA | 0.102 | 0.124 | 0.358 | 0.736 | 0.0976 | 1.68 | 0.114 | 0.228 | 0.189 | 0.149
